From patent US20220275083A1 (EUTILEX, published 2022)
One block for each binder: values may come before it.

Legend:
[1] = target: T1, biotinylated PD-L2 (SinoBiologics, Cat. No. 10292-H08H-B) (UniProt Q9BQ51 20-219, biotinylated); assay: ELISA, human PD-1-Fc coated at 2 ug/ml, biotinylated PD-L2 titrated 0.01-1.00 ug/mL, avidin-HRP
T1 construct: Bought antigen
T1 sequence (looked up): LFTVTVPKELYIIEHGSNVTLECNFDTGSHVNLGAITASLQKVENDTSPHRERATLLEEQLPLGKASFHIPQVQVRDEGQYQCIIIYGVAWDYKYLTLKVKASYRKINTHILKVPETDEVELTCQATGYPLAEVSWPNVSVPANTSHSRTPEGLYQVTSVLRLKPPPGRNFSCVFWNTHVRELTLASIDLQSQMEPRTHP

[2] = target: T2, biotinylated 4-1BB antigen (SinoBiologics, Cat. No. 10041-H08H-B) (UniProt Q07011 24-186, biotinylated); assay: dual antigen ELISA: PD-L1 coated, S12 titrated, detection with biotinylated 4-1BB and avidin-HRP; lack of signal laid by the filing to the missing anti-4-1BB part
T2 construct: Bought antigen

[3] = target: T3, 4-1BB antigen (abclon) (UniProt Q07011 24-186); assay: ELISA, 4-1BB antigen coated, anti-human IgG Fc-HRP detection, 11 points
T3 construct: Bought antigen

binding result [1]: binds
B1: human PD-1-Fc (SinoBiologics, Cat. No. 10377-H02H) (Fc fusion)
chain: not shown
notes: Bought fusion protein; also called human natural PD1-Fc; natural PD-1; not shown: Fc part of the bought fusion; not described

B2: S12 (4-1BB null variant of S03) (bispecific antibody)
chain: [here about 100 residues without letters]GSTSGSGKPGSGEGSTKG[here about 100 residues without letters]PFPYFDYWGQGTLVTVSSASGGGGSGGGGSDKTHTCPPCPAPEAAGGPSVFLFPPKPKDTLMISRTPEVTCVVVDVSHEDPEVKFNWYVDGVEVHNAKTKPREEQYNSTYRVVSVLTVLHQDWLNGKEYKCAVSNKALPAPIEKTISKAKGQPREPQVYTLPPSREEMTKNQVSLTCLVKGFYPSDIAVEWESNGQPENNYKTTPPVLDSDGSFFLYSKLTVDKSRWQQGNVFSCSVMHEALHNHYTQKSLSLSPGGGGGSGGGGSFLESPDRPWNAPTFSPALLLVAEGDNATFTCSFSNASESFHVVWHRESPSGQTDTLAAFPEDRSQPGQDHRFRVTRLPNGRDFHMSVVRAQRNDSGTYVCGVISLAPKIQIKESLRAELRVTERRAEVPTAHPSPSPRPAGQFQTLVVG
notes: S03 with the anti-4-1BB antibody substituted by human germline antibody (DP47); keeps euPD-1
binding result [2]: no binding (tested: log 2 ug/ml (100 ug/ml)) | binding result [3]: no binding (tested: log -0.3 ug/mL (0.5 ug/ml))
